{
  "source": "patent US20210238308A1",
  "about": "(Chugai, published 2021)",
  "binders": {"B1": {"name": "MRAH-G1d/MRAL-KT0 N434V (antibody, human IgG1, kappa)", "heavy": "QVQLQESGPGLVRPSQTLSLTCTVSGYSITSDHAWSWVRQPPGRGLEWIGYISYSGITTYNPSLKSRVTMLRDTSKNQFSLRLSSVTAADTAVYYCARSLARTTAMDYWGQGSLVTVSS[human IgG1 constant region with N434V (EU numbers) omitted here]", "light": "DIQMTQSPSSLSASVGDRVTITCRASQDISSYLNWYQQKPGKAPKLLIYYTSRLHSGVPSRFSGSGSGTDFTFTISSLQPEDIATYYCQQGNTLPYTFGQGTKVEIKRTVAAPSVFIFPPSDEQLKSGTASVVCLLNNFYPREAKVQWKVDNALQSGNSQESVTEQDSKDSTYSLSSTLTLSKADYEKHKVYACEVTHQGLSSPVTKSFNRGEC", "notes": "copies: 2 + 2"}, "B2": {"name": "MRAH-G1d/MRAL-KT0 Q311D (antibody, human IgG1, kappa)", "heavy": "QVQLQESGPGLVRPSQTLSLTCTVSGYSITSDHAWSWVRQPPGRGLEWIGYISYSGITTYNPSLKSRVTMLRDTSKNQFSLRLSSVTAADTAVYYCARSLARTTAMDYWGQGSLVTVSS[human IgG1 constant region with Q311D (EU numbers) omitted here]", "light": "B1 light", "notes": "copies: 2 + 2"}, "B3": {"name": "MRAH-G1d/MRAL-KT0 Q311E (antibody, human IgG1, kappa)", "heavy": "QVQLQESGPGLVRPSQTLSLTCTVSGYSITSDHAWSWVRQPPGRGLEWIGYISYSGITTYNPSLKSRVTMLRDTSKNQFSLRLSSVTAADTAVYYCARSLARTTAMDYWGQGSLVTVSS[human IgG1 constant region with Q311E (EU numbers) omitted here]", "light": "B1 light", "notes": "copies: 2 + 2"}, "B4": {"name": "MRAH-G1d/MRAL-KT0 Q311F (antibody, human IgG1, kappa)", "heavy": "QVQLQESGPGLVRPSQTLSLTCTVSGYSITSDHAWSWVRQPPGRGLEWIGYISYSGITTYNPSLKSRVTMLRDTSKNQFSLRLSSVTAADTAVYYCARSLARTTAMDYWGQGSLVTVSS[human IgG1 constant region with Q311F (EU numbers) omitted here]", "light": "B1 light", "notes": "copies: 2 + 2"}, "B5": {"name": "MRAH-G1d/MRAL-KT0 Q311G (antibody, human IgG1, kappa)", "heavy": "QVQLQESGPGLVRPSQTLSLTCTVSGYSITSDHAWSWVRQPPGRGLEWIGYISYSGITTYNPSLKSRVTMLRDTSKNQFSLRLSSVTAADTAVYYCARSLARTTAMDYWGQGSLVTVSS[human IgG1 constant region with Q311G (EU numbers) omitted here]", "light": "B1 light", "notes": "copies: 2 + 2"}, "B6": {"name": "MRAH-G1d/MRAL-KT0 Q311K (antibody, human IgG1, kappa)", "heavy": "QVQLQESGPGLVRPSQTLSLTCTVSGYSITSDHAWSWVRQPPGRGLEWIGYISYSGITTYNPSLKSRVTMLRDTSKNQFSLRLSSVTAADTAVYYCARSLARTTAMDYWGQGSLVTVSS[human IgG1 constant region with Q311K (EU numbers) omitted here]", "light": "B1 light", "notes": "copies: 2 + 2"}, "B7": {"name": "MRAH-G1d/MRAL-KT0 Q311L (antibody, human IgG1, kappa)", "heavy": "QVQLQESGPGLVRPSQTLSLTCTVSGYSITSDHAWSWVRQPPGRGLEWIGYISYSGITTYNPSLKSRVTMLRDTSKNQFSLRLSSVTAADTAVYYCARSLARTTAMDYWGQGSLVTVSS[human IgG1 constant region with Q311L (EU numbers) omitted here]", "light": "B1 light", "notes": "copies: 2 + 2"}, "B8": {"name": "MRAH-G1d/MRAL-KT0 Q311M (antibody, human IgG1, kappa)", "heavy": "QVQLQESGPGLVRPSQTLSLTCTVSGYSITSDHAWSWVRQPPGRGLEWIGYISYSGITTYNPSLKSRVTMLRDTSKNQFSLRLSSVTAADTAVYYCARSLARTTAMDYWGQGSLVTVSS[human IgG1 constant region with Q311M (EU numbers) omitted here]", "light": "B1 light", "notes": "copies: 2 + 2"}, "B9": {"name": "MRAH-G1d/MRAL-KT0 Q311N (antibody, human IgG1, kappa)", "heavy": "QVQLQESGPGLVRPSQTLSLTCTVSGYSITSDHAWSWVRQPPGRGLEWIGYISYSGITTYNPSLKSRVTMLRDTSKNQFSLRLSSVTAADTAVYYCARSLARTTAMDYWGQGSLVTVSS[human IgG1 constant region with Q311N (EU numbers) omitted here]", "light": "B1 light", "notes": "copies: 2 + 2"}, "B10": {"name": "MRAH-G1d/MRAL-KT0 Q311P (antibody, human IgG1, kappa)", "heavy": "QVQLQESGPGLVRPSQTLSLTCTVSGYSITSDHAWSWVRQPPGRGLEWIGYISYSGITTYNPSLKSRVTMLRDTSKNQFSLRLSSVTAADTAVYYCARSLARTTAMDYWGQGSLVTVSS[human IgG1 constant region with Q311P (EU numbers) omitted here]", "light": "B1 light", "notes": "copies: 2 + 2"}, "B11": {"name": "MRAH-G1d/MRAL-KT0 Q311S (antibody, human IgG1, kappa)", "heavy": "QVQLQESGPGLVRPSQTLSLTCTVSGYSITSDHAWSWVRQPPGRGLEWIGYISYSGITTYNPSLKSRVTMLRDTSKNQFSLRLSSVTAADTAVYYCARSLARTTAMDYWGQGSLVTVSS[human IgG1 constant region with Q311S (EU numbers) omitted here]", "light": "B1 light", "notes": "copies: 2 + 2"}, "B12": {"name": "MRAH-G1d/MRAL-KT0 Q311T (antibody, human IgG1, kappa)", "heavy": "QVQLQESGPGLVRPSQTLSLTCTVSGYSITSDHAWSWVRQPPGRGLEWIGYISYSGITTYNPSLKSRVTMLRDTSKNQFSLRLSSVTAADTAVYYCARSLARTTAMDYWGQGSLVTVSS[human IgG1 constant region with Q311T (EU numbers) omitted here]", "light": "B1 light", "notes": "copies: 2 + 2"}, "B13": {"name": "MRAH-G1d/MRAL-KT0 Q311V (antibody, human IgG1, kappa)", "heavy": "QVQLQESGPGLVRPSQTLSLTCTVSGYSITSDHAWSWVRQPPGRGLEWIGYISYSGITTYNPSLKSRVTMLRDTSKNQFSLRLSSVTAADTAVYYCARSLARTTAMDYWGQGSLVTVSS[human IgG1 constant region with Q311V (EU numbers) omitted here]", "light": "B1 light", "notes": "copies: 2 + 2"}, "B14": {"name": "MRAH-G1d/MRAL-KT0 Q311W (antibody, human IgG1, kappa)", "heavy": "QVQLQESGPGLVRPSQTLSLTCTVSGYSITSDHAWSWVRQPPGRGLEWIGYISYSGITTYNPSLKSRVTMLRDTSKNQFSLRLSSVTAADTAVYYCARSLARTTAMDYWGQGSLVTVSS[human IgG1 constant region with Q311W (EU numbers) omitted here]", "light": "B1 light", "notes": "copies: 2 + 2"}},
  "data": [
    {"target": "T1, PRYSPRY domain of human TRIM21 with N-terminal 6xHis tag (human)", "T1 construct": "Expressed in E. coli; also called hTRIM21; human TRIM21.PRYSPRY", "T1 chain": "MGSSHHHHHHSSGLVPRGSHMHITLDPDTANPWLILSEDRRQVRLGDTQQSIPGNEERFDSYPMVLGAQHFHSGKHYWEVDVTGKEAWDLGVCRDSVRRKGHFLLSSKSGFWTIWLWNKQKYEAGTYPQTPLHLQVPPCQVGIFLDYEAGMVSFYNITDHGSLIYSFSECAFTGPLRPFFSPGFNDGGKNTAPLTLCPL", "assay": "SPR, Protein L capture", "values": [
      {"binder": "B1", "hTRIM21 binding level ratio (variant/control antibody)": 0.388},
      {"binder": "B2", "hTRIM21 binding level ratio (variant/control antibody)": 0.345},
      {"binder": "B3", "hTRIM21 binding level ratio (variant/control antibody)": 0.486},
      {"binder": "B4", "hTRIM21 binding level ratio (variant/control antibody)": 1.06},
      {"binder": "B5", "hTRIM21 binding level ratio (variant/control antibody)": 1.05},
      {"binder": "B6", "hTRIM21 binding level ratio (variant/control antibody)": 0.791},
      {"binder": "B7", "hTRIM21 binding level ratio (variant/control antibody)": 0.562},
      {"binder": "B8", "hTRIM21 binding level ratio (variant/control antibody)": 0.953},
      {"binder": "B9", "hTRIM21 binding level ratio (variant/control antibody)": 0.782},
      {"binder": "B10", "hTRIM21 binding level ratio (variant/control antibody)": 1.15},
      {"binder": "B11", "hTRIM21 binding level ratio (variant/control antibody)": 1.21},
      {"binder": "B12", "hTRIM21 binding level ratio (variant/control antibody)": 1.02},
      {"binder": "B13", "hTRIM21 binding level ratio (variant/control antibody)": 0.989},
      {"binder": "B14", "hTRIM21 binding level ratio (variant/control antibody)": 1.16}
    ]},
    {"target": "T2, PRYSPRY domain of mouse TRIM21 with N-terminal 6xHis tag (mouse)", "T2 construct": "Expressed in E. coli; also called mTRIM21; mouse TRIM21.PRYSPRY", "T2 chain": "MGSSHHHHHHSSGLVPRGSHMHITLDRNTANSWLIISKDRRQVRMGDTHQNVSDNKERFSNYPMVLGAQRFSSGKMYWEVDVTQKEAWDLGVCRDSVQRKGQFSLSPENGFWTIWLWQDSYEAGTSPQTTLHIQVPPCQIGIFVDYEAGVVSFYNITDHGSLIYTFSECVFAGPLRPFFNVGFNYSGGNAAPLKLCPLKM", "assay": "SPR, Protein L capture", "values": [
      {"binder": "B1", "mTRIM21 binding level ratio (variant/control antibody)": 0.101},
      {"binder": "B2", "mTRIM21 binding level ratio (variant/control antibody)": 1.03},
      {"binder": "B3", "mTRIM21 binding level ratio (variant/control antibody)": 1.04},
      {"binder": "B4", "mTRIM21 binding level ratio (variant/control antibody)": 2.81},
      {"binder": "B5", "mTRIM21 binding level ratio (variant/control antibody)": 3.06},
      {"binder": "B6", "mTRIM21 binding level ratio (variant/control antibody)": 2.98},
      {"binder": "B7", "mTRIM21 binding level ratio (variant/control antibody)": 1.97},
      {"binder": "B8", "mTRIM21 binding level ratio (variant/control antibody)": 2.55},
      {"binder": "B9", "mTRIM21 binding level ratio (variant/control antibody)": 2.64},
      {"binder": "B10", "mTRIM21 binding level ratio (variant/control antibody)": 2.73},
      {"binder": "B11", "mTRIM21 binding level ratio (variant/control antibody)": 2.67},
      {"binder": "B12", "mTRIM21 binding level ratio (variant/control antibody)": 2.71},
      {"binder": "B13", "mTRIM21 binding level ratio (variant/control antibody)": 2.62},
      {"binder": "B14", "mTRIM21 binding level ratio (variant/control antibody)": 2.79}
    ]},
    {"target": "T3, human FcRn (human, UniProt P55899 fragment; P61769 fragment, limits assumed)", "T3 construct": "also called hFcRn", "T3 sequence (P55899 24-290 limits assumed, form in doubt, chain 1 of 2)": "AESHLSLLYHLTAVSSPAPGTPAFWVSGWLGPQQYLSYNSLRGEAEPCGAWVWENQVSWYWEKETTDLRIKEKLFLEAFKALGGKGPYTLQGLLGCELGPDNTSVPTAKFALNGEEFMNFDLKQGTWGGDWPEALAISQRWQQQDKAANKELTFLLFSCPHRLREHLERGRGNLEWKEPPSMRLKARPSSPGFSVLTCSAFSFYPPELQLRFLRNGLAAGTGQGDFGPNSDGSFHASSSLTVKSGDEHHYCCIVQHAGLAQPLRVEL", "T3 sequence (P61769 21-119 limits assumed, form in doubt, chain 2 of 2, further chain)": "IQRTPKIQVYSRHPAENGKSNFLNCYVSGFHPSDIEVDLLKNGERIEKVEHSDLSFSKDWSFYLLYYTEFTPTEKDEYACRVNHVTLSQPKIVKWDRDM", "assay": "SPR, Protein L capture", "values": [
      {"binder": "B1", "hFcRn binding level ratio (variant/control antibody)": 0.84},
      {"binder": "B2", "hFcRn binding level ratio (variant/control antibody)": 0.67},
      {"binder": "B3", "hFcRn binding level ratio (variant/control antibody)": 0.44},
      {"binder": "B4", "hFcRn binding level ratio (variant/control antibody)": 0.76},
      {"binder": "B5", "hFcRn binding level ratio (variant/control antibody)": 0.35},
      {"binder": "B6", "hFcRn binding level ratio (variant/control antibody)": 1.01},
      {"binder": "B7", "hFcRn binding level ratio (variant/control antibody)": 1.15},
      {"binder": "B8", "hFcRn binding level ratio (variant/control antibody)": 1.42},
      {"binder": "B9", "hFcRn binding level ratio (variant/control antibody)": 0.2},
      {"binder": "B10", "hFcRn binding level ratio (variant/control antibody)": 0.27},
      {"binder": "B11", "hFcRn binding level ratio (variant/control antibody)": 0.83},
      {"binder": "B12", "hFcRn binding level ratio (variant/control antibody)": 1.14},
      {"binder": "B13", "hFcRn binding level ratio (variant/control antibody)": 0.14},
      {"binder": "B14", "hFcRn binding level ratio (variant/control antibody)": 0.4}
    ]}
  ]
}
